Some test systems named below: T-47D breast; SF-268 CNS; CCRF-CEM leukemia; HL-60(TB) leukemia; HT29 colon; K-562 leukemia; KM20L2 colon; RPMI-8226 leukemia.
Common to all, as to experiment: growth of human tumour cells (NCI), 48 h

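Growth conditions: 96-well plates. Treatment: test compound, 48 hours, 5 concentrations. Analysis: linear interpolation between bracketing concentrations; unreached endpoints set to highest concentration. GI50 marks 50% less growth.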 Some entries of the source have several records that differ or are many. The list is limited to them. There may be further records. A record mostly stands for its own series of concentrations, not given here; a value can be the end of its range.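 The concentration for full growth arrest is given as TGI.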

In the case of `CCCCCCCCCCCCOC1C(C(CC(=O)NCCN2CCCC2)NS(=O)(=O)c2cc(Cl)cc(Cl)c2)OC2OC(C)(C)OC21` (stereo not drawn), the GI50 in the experiment with T-47D breast was 2.08 µM and 45.8 nM.

With `Nc1nc(N)c2cc(CNc3ccc(C(=O)NC(CC(=O)O)C(=O)O)c(Cl)c3)ccc2n1` (stereo not drawn), in the experiment on SF-268 CNS, the TGI is 12.6 µM and > 500 µM.

On to `CCOc1ccccc1NC(=O)C(C#N)C1=C(Cl)C(=O)c2ccccc2C1=O` (stereo not drawn), for which the TGI in the experiment with CCRF-CEM leukemia is 3.66 µM and > 100 µM; in the experiment with HL-60(TB) leukemia, 2.16 µM and > 100 µM; in the experiment on HT29 colon, 4.19 µM and 52.4 µM; in the experiment with K-562 leukemia, 3.92 µM and > 100 µM; in the experiment on KM20L2 colon it was 3.43 µM and 44.5 µM; with RPMI-8226 leukemia, 3.87 µM and > 100 µM.

These data come from PubChem BioAssay (NCI).
